# Results taken from the supplement of paper PMC10037445.
# In all, about 2,900 compounds were measured (“IRF Lucia reporter activity, fold change vs agonist alone”: median about 0.9, highest 2% from about 2.8 on). The list shows a part of the results.
# Columns and labels:
# RAW-Dual [1] = assay: IRF Lucia reporter activity, fold change vs agonist alone; higher = enhanced IRF activity; conditions: agonist: MPLA (TLR4) […]
# Outline: (§1)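 Supernatant from RAW-Dual macrophages was read after 20 hours for IRF by QuantiLuc luminescence and for NF-κB by QuantiBlue absorbance at 620 nm. The cells (50,000 cells/well in DMEM, 384-well plates, 37 °C, 5% CO2) had received 50 nL of library stock by pin tool and, 1 h later, a PRR agonist. Reporter activity is expressed relative to agonist-alone wells as fold change, and wells were flagged cytotoxic if IncuCyte confluency was under 70% of agonist controls in both mask sets.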
# RAW-Dual [2] = assay: IRF Lucia reporter activity, fold change vs agonist alone; cytotoxicity flag (confluency mask): not cytotoxic; higher = enhanced IRF activity
# Outline: as §1
# RAW-Dual [3] = assay: IRF Lucia reporter activity, fold change vs agonist alone; cytotoxicity flag (confluency mask): cytotoxic (confluency <70% of control); higher = enhanced IRF activity
# Outline: as §1
# [4] = library stock concentration (final ~1000-fold dilution): 10 mM, cytotoxicity flag (confluency mask): not cytotoxic
# [5] = agonist: 3'3'-cGAMP (STING) 10 ug/mL
smiles,measurement,setting,value
COC(=O)CNC(=O)C(=O)OC,IRF Lucia reporter activity,RAW-Dual [1]; [4],1.04
COC(=O)CNC(=O)C(=O)OC (library stock concentration (final ~1000-fold dilution): 10 mM),IRF Lucia reporter activity,RAW-Dual [2]; [5],0.889
same,IRF Lucia reporter activity,RAW-Dual [2]; agonist: LPS (TLR4) 0.1 ug/mL,1.23
Br.N#Cc1ccc(-c2csc(NN=C3CCCC3)n2)cc1 (library stock concentration (final ~1000-fold dilution): 10 mM),IRF Lucia reporter activity,RAW-Dual [2]; [5],1.19
same,IRF Lucia reporter activity,RAW-Dual [2]; agonist: LPS (TLR4) 0.1 ug/mL,0.644
Oc1ccc(OCc2ccccc2)cc1 (library stock concentration (final ~1000-fold dilution): 10 mM),IRF Lucia reporter activity,RAW-Dual [2]; [5],0.738
same,IRF Lucia reporter activity,RAW-Dual [2]; agonist: LPS (TLR4) 0.1 ug/mL,1.05
Oc1ccc(OCc2ccccc2)cc1,IRF Lucia reporter activity,RAW-Dual [1]; [4],1.27
COc1cc(O)c(CC=C(C)C)c(O)c1C(=O)/C=C/c1ccc(O)cc1 (library stock concentration (final ~1000-fold dilution): 10 mM),IRF Lucia reporter activity,RAW-Dual [3]; [5],0.0595
same,IRF Lucia reporter activity,RAW-Dual [3]; agonist: LPS (TLR4) 0.1 ug/mL,0.416
Cc1cc(Nc2ncnc3ccc(-c4ccc(CNCCS(C)(=O)=O)o4)cc23)ccc1Oc1ccn2ncnc2c1 (library stock concentration (final ~1000-fold dilution): 10 mM),IRF Lucia reporter activity,RAW-Dual [2]; [5],0.0837
same,IRF Lucia reporter activity,RAW-Dual [2]; agonist: LPS (TLR4) 0.1 ug/mL,0.713
Cc1cc(Nc2ncnc3ccc(-c4ccc(CNCCS(C)(=O)=O)o4)cc23)ccc1Oc1ccn2ncnc2c1,IRF Lucia reporter activity,RAW-Dual [1]; [4],0.778
Cc1ccc(Cl)c(Nc2ccccc2C(=O)O)c1Cl (library stock concentration (final ~1000-fold dilution): 10 mM),IRF Lucia reporter activity,RAW-Dual [2]; [5],1.01
same,IRF Lucia reporter activity,RAW-Dual [2]; agonist: LPS (TLR4) 0.1 ug/mL,1.05
Cc1ccc(Cl)c(Nc2ccccc2C(=O)O)c1Cl,IRF Lucia reporter activity,RAW-Dual [1]; [4],0.95
CCCN(CCC)C(=O)C1=Cc2ccc(-c3ccc(C(=O)N4CCCC4)cc3)cc2N=C(N)C1 (library stock concentration (final ~1000-fold dilution): 1 mM),IRF Lucia reporter activity,RAW-Dual [2]; [5],1
same,IRF Lucia reporter activity,RAW-Dual [2]; agonist: LPS (TLR4) 0.1 ug/mL,1.11
O=C1Nc2ccc(I)cc2C1=Cc1cc(Br)c(O)c(Br)c1,IRF Lucia reporter activity,"RAW-Dual [1]; library stock concentration (final ~1000-fold dilution): 10 mM, cytotoxicity flag (confluency mask): cytotoxic (confluency <70% of control)",0.615
O=C1Nc2ccc(I)cc2C1=Cc1cc(Br)c(O)c(Br)c1 (library stock concentration (final ~1000-fold dilution): 10 mM),IRF Lucia reporter activity,RAW-Dual [3]; [5],0.214
same,IRF Lucia reporter activity,RAW-Dual [3]; agonist: LPS (TLR4) 0.1 ug/mL,0.418
O=C(c1cn(Cc2cncn2Cc2ccc(Br)cc2)cc1-c1cccc2ccccc12)N1CCOCC1 (library stock concentration (final ~1000-fold dilution): 10 mM),IRF Lucia reporter activity,RAW-Dual [2]; [5],0.237
same,IRF Lucia reporter activity,RAW-Dual [2]; agonist: LPS (TLR4) 0.1 ug/mL,0.797
O=C(c1cn(Cc2cncn2Cc2ccc(Br)cc2)cc1-c1cccc2ccccc12)N1CCOCC1,IRF Lucia reporter activity,RAW-Dual [1]; [4],1.36
O=C1Nc2ccccc2/C1=C1\Nc2ccccc2C1=O (library stock concentration (final ~1000-fold dilution): 10 mM),IRF Lucia reporter activity,RAW-Dual [2]; [5],0.96
same,IRF Lucia reporter activity,RAW-Dual [2]; agonist: LPS (TLR4) 0.1 ug/mL,0.875
O=C1Nc2ccccc2/C1=C1\Nc2ccccc2C1=O,IRF Lucia reporter activity,RAW-Dual [1]; [4],0.979
O=c1cc(-c2ccc(O)c(-c3c(O)cc(O)c4c(=O)cc(-c5ccc(O)cc5)oc34)c2)oc2cc(O)cc(O)c12 (library stock concentration (final ~1000-fold dilution): 10 mM),IRF Lucia reporter activity,RAW-Dual [2]; [5],0.0226
same,IRF Lucia reporter activity,RAW-Dual [2]; agonist: LPS (TLR4) 0.1 ug/mL,0.0594
O=C1c2c(O)cccc2C(C2OC(CO)C(O)C(O)C2O)c2cc(CO)cc(O)c21 (centres undefined) (library stock concentration (final ~1000-fold dilution): 10 mM),IRF Lucia reporter activity,RAW-Dual [2]; [5],0.954
same,IRF Lucia reporter activity,RAW-Dual [2]; agonist: LPS (TLR4) 0.1 ug/mL,1.26
O=C1c2c(O)cccc2C(C2OC(CO)C(O)C(O)C2O)c2cc(CO)cc(O)c21 (centres undefined),IRF Lucia reporter activity,RAW-Dual [1]; [4],1.01
COc1ccccc1S(=O)(=O)Nc1ccc2c(c1)CN(C)C(=O)N2 (library stock concentration (final ~1000-fold dilution): 10 mM),IRF Lucia reporter activity,RAW-Dual [2]; [5],0.45
same,IRF Lucia reporter activity,RAW-Dual [2]; agonist: LPS (TLR4) 0.1 ug/mL,0.27
COc1ccccc1S(=O)(=O)Nc1ccc2c(c1)CN(C)C(=O)N2,IRF Lucia reporter activity,RAW-Dual [1]; [4],0.214
CC(C)C1=CC2=CCC3C(C)(C(=O)O)CCCC3(C)C2CC1 (centres undefined),IRF Lucia reporter activity,RAW-Dual [1]; [4],1.05
CC(C)C1=CC2=CCC3C(C)(C(=O)O)CCCC3(C)C2CC1 (centres undefined) (library stock concentration (final ~1000-fold dilution): 10 mM),IRF Lucia reporter activity,RAW-Dual [2]; [5],0.891
same,IRF Lucia reporter activity,RAW-Dual [2]; agonist: LPS (TLR4) 0.1 ug/mL,1.32
CCCCC(=O)N(Cc1ccc(-c2ccccc2-c2nn[nH]n2)cc1)C(C(=O)O)C(C)C (centres undefined) (library stock concentration (final ~1000-fold dilution): 10 mM),IRF Lucia reporter activity,RAW-Dual [2]; [5],0.655
same,IRF Lucia reporter activity,RAW-Dual [2]; agonist: LPS (TLR4) 0.1 ug/mL,0.605
CCCCC(=O)N(Cc1ccc(-c2ccccc2-c2nn[nH]n2)cc1)C(C(=O)O)C(C)C (centres undefined),IRF Lucia reporter activity,RAW-Dual [1]; [4],0.643
FC(F)c1nc2ccccc2n1-c1nc(N2CCOCC2)nc(N2CCOCC2)n1 (library stock concentration (final ~1000-fold dilution): 10 mM),IRF Lucia reporter activity,RAW-Dual [2]; [5],0.46
same,IRF Lucia reporter activity,RAW-Dual [2]; agonist: LPS (TLR4) 0.1 ug/mL,1.62
FC(F)c1nc2ccccc2n1-c1nc(N2CCOCC2)nc(N2CCOCC2)n1,IRF Lucia reporter activity,RAW-Dual [1]; [4],1.21
CN(C(=O)CNC(=O)/C=C/c1cccc(Cl)c1)C1CCS(=O)(=O)CC1 (library stock concentration (final ~1000-fold dilution): 10 mM),IRF Lucia reporter activity,RAW-Dual [2]; [5],0.668
same,IRF Lucia reporter activity,RAW-Dual [2]; agonist: LPS (TLR4) 0.1 ug/mL,0.91
COc1cc2c(cc1OC)CN(C(=O)/C=C/c1c(-c3ccccc3)n(C)c3ncccc13)CC2.Cl (library stock concentration (final ~1000-fold dilution): 10 mM),IRF Lucia reporter activity,RAW-Dual [2]; [5],0.886
same,IRF Lucia reporter activity,RAW-Dual [2]; agonist: LPS (TLR4) 0.1 ug/mL,1.07
CC(C)Cc1ccc(C(C)C(=O)O)cc1.NCCCCC(N)C(=O)O (centres undefined),IRF Lucia reporter activity,"RAW-Dual [1]; library stock concentration (final ~1000-fold dilution): 10 mM water, cytotoxicity flag (confluency mask): not cytotoxic",1.33
CC(C)Cc1ccc(C(C)C(=O)O)cc1.NCCCCC(N)C(=O)O (centres undefined) (library stock concentration (final ~1000-fold dilution): 10 mM water),IRF Lucia reporter activity,RAW-Dual [2]; [5],1.29
same,IRF Lucia reporter activity,RAW-Dual [2]; agonist: LPS (TLR4) 0.1 ug/mL,0.813
CC1(C)OCCn2c1nc1c(N3CCOCC3)nc(-c3cnc(N)nc3)nc12 (library stock concentration (final ~1000-fold dilution): 10 mM),IRF Lucia reporter activity,RAW-Dual [2]; [5],0.579
same,IRF Lucia reporter activity,RAW-Dual [2]; agonist: LPS (TLR4) 0.1 ug/mL,0.925
COC1=CC(c2cc3ccccc3[nH]2)=N/C1=C\c1[nH]c(C)cc1C.CS(=O)(=O)O (library stock concentration (final ~1000-fold dilution): 10 mM),IRF Lucia reporter activity,RAW-Dual [2]; [5],0.38
same,IRF Lucia reporter activity,RAW-Dual [2]; agonist: LPS (TLR4) 0.1 ug/mL,3.87
COC1=CC(c2cc3ccccc3[nH]2)=N/C1=C\c1[nH]c(C)cc1C.CS(=O)(=O)O,IRF Lucia reporter activity,RAW-Dual [1]; [4],5.45
CS(=O)(=O)O.O=C(OC1CC2CC3CC(C1)N2CC3=O)c1c[nH]c2ccccc12 (centres undefined) (library stock concentration (final ~1000-fold dilution): 10 mM),IRF Lucia reporter activity,RAW-Dual [2]; [5],1.02
same,IRF Lucia reporter activity,RAW-Dual [2]; agonist: LPS (TLR4) 0.1 ug/mL,0.975
CS(=O)(=O)O.O=C(OC1CC2CC3CC(C1)N2CC3=O)c1c[nH]c2ccccc12 (centres undefined),IRF Lucia reporter activity,RAW-Dual [1]; [4],1.03
